Experimental data from patent US20190218304A1, “POTENTIATING THE EFFECT OF ATP RELEASE” (INNATE PHARMA, priority 2017, published 2019).
Entries after “also recorded” stand apart in the source; their conditions may differ.

T1: soluble recombinant human CD39 protein (Homo sapiens, UniProt P49961)
T1 construct: made in house; host or cells: CHO cells
T1 sequence (P49961 with tags, fused parts or gaps): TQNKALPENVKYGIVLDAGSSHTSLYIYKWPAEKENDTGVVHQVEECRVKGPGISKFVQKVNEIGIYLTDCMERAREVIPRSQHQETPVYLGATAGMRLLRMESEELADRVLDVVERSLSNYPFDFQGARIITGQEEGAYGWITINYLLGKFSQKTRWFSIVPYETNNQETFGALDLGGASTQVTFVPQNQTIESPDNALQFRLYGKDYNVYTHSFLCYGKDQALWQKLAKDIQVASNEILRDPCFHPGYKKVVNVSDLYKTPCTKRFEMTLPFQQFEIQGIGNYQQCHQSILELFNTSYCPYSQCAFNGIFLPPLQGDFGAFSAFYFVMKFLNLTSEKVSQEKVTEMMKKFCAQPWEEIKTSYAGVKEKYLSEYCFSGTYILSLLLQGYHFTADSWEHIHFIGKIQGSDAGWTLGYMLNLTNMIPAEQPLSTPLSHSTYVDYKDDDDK

T2: cell-membrane bound CD39 (Homo sapiens, UniProt P49961)
T2 sequence (P49961 1-510): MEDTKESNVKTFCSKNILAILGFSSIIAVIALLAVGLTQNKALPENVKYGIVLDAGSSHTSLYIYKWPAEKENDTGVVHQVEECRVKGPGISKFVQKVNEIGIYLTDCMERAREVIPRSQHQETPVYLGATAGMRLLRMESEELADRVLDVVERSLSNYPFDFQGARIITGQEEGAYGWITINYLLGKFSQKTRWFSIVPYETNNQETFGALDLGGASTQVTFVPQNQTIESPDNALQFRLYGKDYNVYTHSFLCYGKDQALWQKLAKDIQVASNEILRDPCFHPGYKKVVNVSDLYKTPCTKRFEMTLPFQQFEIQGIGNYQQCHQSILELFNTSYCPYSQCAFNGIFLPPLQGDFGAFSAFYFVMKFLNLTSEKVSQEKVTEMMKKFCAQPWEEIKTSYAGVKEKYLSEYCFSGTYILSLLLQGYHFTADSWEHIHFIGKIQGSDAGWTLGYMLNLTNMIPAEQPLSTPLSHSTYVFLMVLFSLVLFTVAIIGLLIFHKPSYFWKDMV

T3: CD39 mutants (Table 1) expressed in Hek-293T cells (Homo sapiens, UniProt P49961, E142K/M139A/R138A)
T3 construct: expressed in transfected cells; host or cells: Hek-293T cells
T3 sequence (P49961 1-510 R138A/M139A/E142K): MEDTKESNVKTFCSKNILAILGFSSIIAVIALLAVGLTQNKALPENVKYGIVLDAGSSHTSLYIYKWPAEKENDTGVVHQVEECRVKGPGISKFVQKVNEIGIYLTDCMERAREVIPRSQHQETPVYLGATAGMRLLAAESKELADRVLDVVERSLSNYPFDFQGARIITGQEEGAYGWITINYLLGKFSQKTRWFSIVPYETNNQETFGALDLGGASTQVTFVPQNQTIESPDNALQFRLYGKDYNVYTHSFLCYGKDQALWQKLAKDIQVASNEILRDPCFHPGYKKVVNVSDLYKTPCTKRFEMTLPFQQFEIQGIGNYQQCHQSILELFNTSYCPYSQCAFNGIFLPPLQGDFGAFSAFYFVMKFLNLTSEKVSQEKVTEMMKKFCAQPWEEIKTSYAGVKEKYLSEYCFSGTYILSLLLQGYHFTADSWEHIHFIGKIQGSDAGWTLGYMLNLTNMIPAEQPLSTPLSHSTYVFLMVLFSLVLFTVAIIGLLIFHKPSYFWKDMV

T4: CD39 mutants (Table 1) expressed in Hek-293T cells (Homo sapiens, UniProt P49961, E143A/N99A/Q96A/R147E)
T4 construct: expressed in transfected cells; host or cells: Hek-293T cells
T4 sequence (P49961 1-510 Q96A/N99A/E143A/R147E): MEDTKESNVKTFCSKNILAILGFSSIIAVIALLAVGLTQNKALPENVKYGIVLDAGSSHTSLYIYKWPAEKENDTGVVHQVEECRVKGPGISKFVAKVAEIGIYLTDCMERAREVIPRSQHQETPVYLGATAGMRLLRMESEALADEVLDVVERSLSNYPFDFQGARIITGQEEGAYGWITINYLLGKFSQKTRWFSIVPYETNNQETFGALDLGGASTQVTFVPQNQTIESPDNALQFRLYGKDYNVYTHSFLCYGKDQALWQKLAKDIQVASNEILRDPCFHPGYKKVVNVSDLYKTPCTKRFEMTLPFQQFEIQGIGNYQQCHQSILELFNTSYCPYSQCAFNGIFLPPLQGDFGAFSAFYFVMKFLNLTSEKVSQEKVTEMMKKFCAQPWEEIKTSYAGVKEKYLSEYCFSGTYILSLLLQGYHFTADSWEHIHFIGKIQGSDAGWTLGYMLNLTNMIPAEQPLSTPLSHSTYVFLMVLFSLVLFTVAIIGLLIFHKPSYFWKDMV

T5: CD39 mutants (Table 1) expressed in Hek-293T cells (Homo sapiens, UniProt P49961, D107A/E100A/K87A)
T5 construct: expressed in transfected cells; host or cells: Hek-293T cells
T5 sequence (P49961 1-510 K87A/E100A/D107A): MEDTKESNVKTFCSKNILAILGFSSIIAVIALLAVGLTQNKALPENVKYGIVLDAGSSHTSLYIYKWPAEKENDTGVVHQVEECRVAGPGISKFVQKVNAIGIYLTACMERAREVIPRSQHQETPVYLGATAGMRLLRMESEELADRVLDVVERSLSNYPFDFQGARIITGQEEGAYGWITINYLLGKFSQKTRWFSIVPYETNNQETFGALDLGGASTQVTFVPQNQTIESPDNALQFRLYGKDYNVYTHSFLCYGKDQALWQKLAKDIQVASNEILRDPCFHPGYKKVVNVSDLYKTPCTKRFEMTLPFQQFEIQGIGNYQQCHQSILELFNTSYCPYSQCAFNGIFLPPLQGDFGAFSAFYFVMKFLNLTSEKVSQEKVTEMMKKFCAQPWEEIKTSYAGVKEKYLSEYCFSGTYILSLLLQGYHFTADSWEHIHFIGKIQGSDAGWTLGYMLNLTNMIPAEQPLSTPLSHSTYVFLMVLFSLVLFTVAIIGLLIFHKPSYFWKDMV


How the values were obtained:
[1] = target: T1, soluble recombinant human CD39 protein; assay: Inhibition of the enzymatic activity of soluble CD39 (Cell Titer Glo); assay type: biochemical; conditions: for relative potency for inhibition of soluble CD39 (FIG. 2B): ranking among I-394, I-395, I-396; for inhibition of the enzymatic (ATPase) activity of soluble CD39 protein: result in words
Procedure: The inhibition by antibodies of the enzymatic activity of soluble CD39 protein produced was evaluated using Cell Titer Glo™ (Promega, reference G7571) that allows assessment of ATP hydrolysis through use of a reagent that generates a luminescent signal proportional to the amount of ATP present. In this way, inhibition of the soluble-CD39-meidatd ATP hydrolysis can be assessed. Briefly, dose ranges of anti-CD39 antibodies from 100 μg/ml to 6×10^−3 μg/ml were incubated with 400 ng/ml of soluble recombinant human CD39 protein having the amino acid sequence described in the Methods section (SEQ ID NO: 39), for 1 h at 37° C. 20 μM ATP was added to the plates for 30 additional minutes at 37° C. before addition of CTG (Cell Titer Glo) reagent. Emitted light was quantified using an Enspire™ luminometer after a short incubation period of 5 min in the dark. Anti-CD39 antibody efficacy was determined by comparing emitted light in presence of antibody with ATP alone (maximal light emission) and ATP together with soluble CD39 protein (minimal light emission).

[2] = target: T2, cell-membrane bound CD39; assay: Inhibition of the enzymatic activity of cellular CD39 (cells not specified); assay type: cell-based; conditions: for inhibition of cell-membrane bound (cellular) CD39 ATPase activity: result in words
Procedure: The inhibition of the CD39 enzymatic activity in CD39-expressing cells by antibodies was evaluated using Cell Titer Glo™ (Promega, reference G7571) that allows assessment of ATP hydrolysis through use of a reagent that generates a luminescent signal proportional to the amount of ATP present. The assay was thus designed to permit assessment of the inhibition of ATP hydrolyzed by CD39 in the cell culture supernatant. Briefly, 5×10^4 Ramos human lymphoma cells, 5×10^3 human CD39-, cynomolgus CD39- and mouse CD39-expressing CHO cells, were incubated 1 hour at 37° C. with anti-CD39 antibodies from 30 μg/ml to 5×10^−4 μg/ml. Cells were then incubated with 20 μM ATP for 1 additional hour at 37° C. Plates were centrifuged for 2 min at 400 g and 50 μl cell supernatant are transferred in a luminescence microplate (white wells). 50 μl CellTiter-Glo® Reagent (CTG) was added to the supernatant and emitted light was quantified after a 5 min incubation in the dark using a Enspire™ luminometer. Anti-CD39 antibody efficacy was determined by comparing emitted light in presence of antibody with ATP alone (maximal light emission) and ATP together with cells (minimal light emission).
The two antibodies that have been reported to inhibit the ATPase activity of CD39 in cellular assays (BY40 and BY12) were assessed to determine whether are able to inhibit the ATPase activity of recombinant soluble CD39 protein. The inhibition by antibodies of the enzymatic activity of soluble CD39 protein produced as described above was evaluated using Cell Titer Glo™ (Promega, reference G7571). The inhibition by antibodies of the enzymatic activity of cellular CD39 protein was evaluated as indicated above.

[3] = target: T3, CD39 mutants (Table 1) expressed in Hek-293T cells; assay: Epitope mapping: flow cytometry binding to CD39 mutants in Hek-293T cells; conditions: mutant 19: R138A, M139A, E142K
Procedure: (§1) CD39 mutants were generated by PCR. The sequences amplified were run on agarose gel and purified using the Macherey Nagel PCR Clean-Up Gel Extraction kit (reference 740609). The purified PCR products generated for each mutant were then ligated into an expression vector, with the ClonTech InFusion system. The vectors containing the mutated sequences were prepared as Miniprep and sequenced. After sequencing, the vectors containing the mutated sequences were prepared as Midiprep using the Promega PureYield™ Plasmid Midiprep System. HEK293T cells were grown in DMEM medium (Invitrogen), transfected with vectors using Invitrogen's Lipofectamine 2000 and incubated at 37° C. in a […] incubator for 48 hours prior to testing for transgene expression. The targeted amino acid mutations in the table 1 below are shown using numbering of SEQ ID NO: 1.
(§2) In order to define the epitopes of anti-CD39 antibodies, we designed CD39 mutants defined by substitutions of amino acids exposed at the molecular surface over the surface of CD39.
(§3) Mutant 5 contains amino acid substitutions at residues Q96, N99, E143 and R147.
(§4) Mutants were transfected in Hek-293T cells, as shown in the table 1, using numbering of SEQ ID NO: 1. […] Mutant 19 includes substitutions at residues R138, M139 and E142.
(§5) Mutants were transfected in Hek-293T cells, as shown in the table 1, using numbering of SEQ ID NO: 1. Dose-ranges of test antibodies (10-2.5-0.625-0.1563-0.0391-0.0098-0.0024-0.0006 μg/ml) are tested on the 20 generated mutants by flow cytometry.

[4] = target: T4, CD39 mutants (Table 1) expressed in Hek-293T cells; assay: as above; conditions: mutant 5: Q96A, N99A, E143A, R147E
Procedure: as §1, §2, §3, §4, §5

[5] = target: T5, CD39 mutants (Table 1) expressed in Hek-293T cells; assay: as above; conditions: mutant 15: K87A, E100A, D107A
Procedure: as §1, §2, §3, §4, §5

[6] = test system: CD39 mutants (Table 1) expressed in Hek-293T cells; assay: as above; set-up: species or system human; conditions: remaining mutants of the 20 generated
Procedure: as §1, §2, §3, §4, §5

relative potency for inhibition of soluble CD39 (FIG. 2B) [1]	inhibition of cell-membrane bound (cellular) CD39 ATPase activity [2]	binding to cells expressing mutant 19 of CD39 [3]	binding to cells expressing mutant 5 of CD39 [4]	binding to cells expressing mutant 15 of CD39 [5]	Molecule	inhibition of the enzymatic (ATPase) activity of soluble CD39 protein [1]	potency and maximal inhibition of cellular CD39, comparison between antibodies (FIG. 2A) ([2]; compared with BY40)	binding to the other CD39 mutants of Table 1 [6]
followed by I-395	inhibit cell-membrane bound CD39	loss of binding	loss of binding	–	I-395: anti-CD39 antibody, VH SEQ ID NO: 11, VL SEQ ID NO: 12 (antibody, listed as Mus musculus, V domains shown) VH: EVQLQQSGPELVKPGASVRMSCKASGYTFTDYNMHWVKKNHGKGLEWIGYINPNNGGTTYNQKFKGKATLTVNTSSKTAYMELRSLTSEDSAVYYCTRGGTRFASWGQGTLVTVSA VL: NIVLTQSPASLAVSLGQRATISCRASESVDNYGISFMYWFQQKPGQPPKLLIYAASTQGSGVPARFSGSGSGTDFSLNIHPMEEDDTAMYFCQQSKEVPFTFGSGTKLEIK	inhibited the enzymatic activity of soluble CD39 protein; also recorded: inhibit soluble CD39	greater potency and maximal inhibition of cellular CD39 compared to BY40; also recorded: greater potency at all concentrations as well as greater maximal inhibition of cellular CD39 compared to BY40	–
lower potency	inhibit cell-membrane bound CD39	–	–	loss of binding	I-396: anti-CD39 antibody, VH SEQ ID NO: 19, VL SEQ ID NO: 20 (antibody, listed as Mus musculus, V domains shown) VH: EVQLQQSGAELVKPGASVKLSCIVSGFNIKDTYINWVKQRPEQGLEWIGRIDPANGNTKYDPKFQGKATMTSDTSSNTAYLHLSSLTSDDSAVYYCARWGYDDEEADYFDSWGQGTTLTVSS VL: DIVLTQSPASLAVSLGQRATISCRASESVDNYGISFMNWFQQKPGQPPKLLIYAASNQGSGVPARFSGSGSGTDFSLNILPMEEVDAAMYFCHQSKEVPWTFGGGTKLEIK	inhibited the enzymatic activity of soluble CD39 protein; also recorded: inhibit soluble CD39	–	without loss of binding to any of the other 20 mutants
